Laboratory results as given in PMC9911399, “Two distinct binding modes provide the RNA-binding protein RbFox with extraordinary sequence specificity”.
Residue numbers refer to the chain shown, from its start. The list shows a part of the results.

T1: RBFOX1 RRM (Homo sapiens, UniProt Q9NWB1 109-208)
T1 sequence: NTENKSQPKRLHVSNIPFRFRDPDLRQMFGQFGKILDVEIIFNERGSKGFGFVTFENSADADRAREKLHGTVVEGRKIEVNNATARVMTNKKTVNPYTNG

B1: AGCGACG (DNA:RNA)
RNA: GGGAGACCGGAAUUCAGAUUGUCCAGCGACGUUAAAUCCCGUCGUAGCCACCA
DNA 1: CAATCTGAATTCCGGTCTCCC
DNA 2: TGGTGGCTACGACGGGATT
B2: ACGGCAC (DNA:RNA)
RNA: B1 RNA with G26C, C27G, A29C, C30A, G31C
DNA 1: CAATCTGAATTCCGGTCTCCC
DNA 2: TGGTGGCTACGACGGGATT
B3: GAAGGUC (DNA:RNA)
RNA: B1 RNA with A25G, G26A, C27A, A29G, C30U, G31C
DNA 1: CAATCTGAATTCCGGTCTCCC
DNA 2: TGGTGGCTACGACGGGATT
B4: GUUGCGC (DNA:RNA)
RNA: B1 RNA with A25G, G26U, C27U, A29C, C30G, G31C
DNA 1: CAATCTGAATTCCGGTCTCCC
DNA 2: TGGTGGCTACGACGGGATT
B5: AACGGAA (DNA:RNA)
RNA: B1 RNA with G26A, A29G, C30A, G31A
DNA 1: CAATCTGAATTCCGGTCTCCC
DNA 2: TGGTGGCTACGACGGGATT
B6: AAUUCGU (DNA:RNA)
RNA: B1 RNA with G26A, C27U, G28U, A29C, C30G, G31U
DNA 1: CAATCTGAATTCCGGTCTCCC
DNA 2: TGGTGGCTACGACGGGATT
B7: AUAAUUC (DNA:RNA)
RNA: B1 RNA with G26U, C27A, G28A, A29U, C30U, G31C
DNA 1: CAATCTGAATTCCGGTCTCCC
DNA 2: TGGTGGCTACGACGGGATT
B8: UACUUCG (DNA:RNA)
RNA: B1 RNA with A25U, G26A, G28U, A29U
DNA 1: CAATCTGAATTCCGGTCTCCC
DNA 2: TGGTGGCTACGACGGGATT
B9: GACACUU (DNA:RNA)
RNA: B1 RNA with A25G, G26A, G28A, A29C, C30U, G31U
DNA 1: CAATCTGAATTCCGGTCTCCC
DNA 2: TGGTGGCTACGACGGGATT
B10: UUGACAC (DNA:RNA)
RNA: GGGAGACCGGAAUUCAGAUUGUCCUUGACACUUAAAUCCCGUCGUAGCCACCA
DNA 1: CAATCTGAATTCCGGTCTCCC
DNA 2: TGGTGGCTACGACGGGATT
B11: UUCCGGU (DNA:RNA)
RNA: B10 RNA with G27C, A28C, C29G, A30G, C31U
DNA 1: CAATCTGAATTCCGGTCTCCC
DNA 2: TGGTGGCTACGACGGGATT
B12: CAUCGUC (DNA:RNA)
RNA: B10 RNA with U25C, U26A, G27U, A28C, C29G, A30U
DNA 1: CAATCTGAATTCCGGTCTCCC
DNA 2: TGGTGGCTACGACGGGATT
B13: UGAGCGA (DNA:RNA)
RNA: B1 RNA with A25U, C27A, A29C, C30G, G31A
DNA 1: CAATCTGAATTCCGGTCTCCC
DNA 2: TGGTGGCTACGACGGGATT
B14: GGACACU (DNA:RNA)
RNA: B1 RNA with A25G, C27A, G28C, G31U
DNA 1: CAATCTGAATTCCGGTCTCCC
DNA 2: TGGTGGCTACGACGGGATT
B15: ACAUGAC (DNA:RNA)
RNA: B10 RNA with U25A, U26C, G27A, A28U, C29G
DNA 1: CAATCTGAATTCCGGTCTCCC
DNA 2: TGGTGGCTACGACGGGATT
B16: UUCAGCA (DNA:RNA)
RNA: B10 RNA with G27C, C29G, A30C, C31A
DNA 1: CAATCTGAATTCCGGTCTCCC
DNA 2: TGGTGGCTACGACGGGATT
B17: ACUGGGG (DNA:RNA)
RNA: B1 RNA with G26C, C27U, A29G, C30G
DNA 1: CAATCTGAATTCCGGTCTCCC
DNA 2: TGGTGGCTACGACGGGATT
B18: AAAUUAA (DNA:RNA)
RNA: B1 RNA with G26A, C27A, G28U, A29U, C30A, G31A
DNA 1: CAATCTGAATTCCGGTCTCCC
DNA 2: TGGTGGCTACGACGGGATT
B19: GGGCACA (DNA:RNA)
RNA: B1 RNA with A25G, C27G, G28C, G31A
DNA 1: CAATCTGAATTCCGGTCTCCC
DNA 2: TGGTGGCTACGACGGGATT
B20: ACUGGUU (DNA:RNA)
RNA: B1 RNA with G26C, C27U, A29G, C30U, G31U
DNA 1: CAATCTGAATTCCGGTCTCCC
DNA 2: TGGTGGCTACGACGGGATT
B21: CAAUUAU (DNA:RNA)
RNA: B10 RNA with U25C, U26A, G27A, A28U, C29U, C31U
DNA 1: CAATCTGAATTCCGGTCTCCC
DNA 2: TGGTGGCTACGACGGGATT
B22: ACAACUG (DNA:RNA)
RNA: B1 RNA with G26C, C27A, G28A, A29C, C30U
DNA 1: CAATCTGAATTCCGGTCTCCC
DNA 2: TGGTGGCTACGACGGGATT
B23: CUUUUGC (DNA:RNA)
RNA: B10 RNA with U25C, G27U, A28U, C29U, A30G
DNA 1: CAATCTGAATTCCGGTCTCCC
DNA 2: TGGTGGCTACGACGGGATT
B24: UAGGGCU (DNA:RNA)
RNA: B1 RNA with A25U, G26A, C27G, A29G, G31U
DNA 1: CAATCTGAATTCCGGTCTCCC
DNA 2: TGGTGGCTACGACGGGATT
B25: AGACGUG (DNA:RNA)
RNA: B1 RNA with C27A, G28C, A29G, C30U
DNA 1: CAATCTGAATTCCGGTCTCCC
DNA 2: TGGTGGCTACGACGGGATT
B26: GUUACCU (DNA:RNA)
RNA: B10 RNA with U25G, G27U, A30C, C31U
DNA 1: CAATCTGAATTCCGGTCTCCC
DNA 2: TGGTGGCTACGACGGGATT
B27: GUCAGGA (DNA:RNA)
RNA: B10 RNA with U25G, G27C, C29G, A30G, C31A
DNA 1: CAATCTGAATTCCGGTCTCCC
DNA 2: TGGTGGCTACGACGGGATT
B28: CUUCAGG (DNA:RNA)
RNA: B1 RNA with A25C, G26U, C27U, G28C, C30G
DNA 1: CAATCTGAATTCCGGTCTCCC
DNA 2: TGGTGGCTACGACGGGATT
B29: AUUAGAG (DNA:RNA)
RNA: B10 RNA with U25A, G27U, C29G, C31G
DNA 1: CAATCTGAATTCCGGTCTCCC
DNA 2: TGGTGGCTACGACGGGATT
B30: UCCUGCU (DNA:RNA)
RNA: B1 RNA with A25U, G26C, G28U, A29G, G31U
DNA 1: CAATCTGAATTCCGGTCTCCC
DNA 2: TGGTGGCTACGACGGGATT
B31: UGGAGCG (DNA:RNA)
RNA: B1 RNA with A25U, C27G, G28A, A29G
DNA 1: CAATCTGAATTCCGGTCTCCC
DNA 2: TGGTGGCTACGACGGGATT

These binders were tested against T1, RBFOX1 RRM (assay: EMSA; HiTS-Eq, 1 nM pool, 10 min; buffer printed only for the single-RNA assays: 10 mM Tris pH 7.5, 150 mM NaCl, 3.4 mM EDTA, 0.001% NP-40, 30 C). Conditions: tags: His6 N-terminal (pET28a); label: 5' 32P.
Summary of the method: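 These values rest on relative association constants, computed from read-count changes of each RNA species versus the control reaction and normalised to the cognate motif. Reads came from free RNA recovered by 8% native PAGE after purified RbFox RRM (wild type or mutant) at increasing concentrations was equilibrated for 10 min in 50 µL with 1 nM of a 5′-radiolabelled pool with 7 randomized nucleotides and DNA-annealed flanks.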

Binder | binding signal
B1 | 0.0146 KA relative to UGCAUGU
B2 | 0.0132 KA relative to UGCAUGU
B3 | 0.0116 KA relative to UGCAUGU
B4 | 0.0245 KA relative to UGCAUGU
B5 | 0.00432 KA relative to UGCAUGU
B6 | 0.0086 KA relative to UGCAUGU
B7 | 0.0031 KA relative to UGCAUGU
B8 | 0.0208 KA relative to UGCAUGU
B9 | 0.00769 KA relative to UGCAUGU
B10 | 0.0073 KA relative to UGCAUGU
B11 | 0.00729 KA relative to UGCAUGU
B12 | 0.00528 KA relative to UGCAUGU
B13 | 0.0174 KA relative to UGCAUGU
B14 | 0.0158 KA relative to UGCAUGU
B15 | 0.00505 KA relative to UGCAUGU
B16 | 0.015 KA relative to UGCAUGU

Binder | binding signal
B17 | 0.0129 KA relative to UGCAUGU
B18 | 0.00133 KA relative to UGCAUGU
B19 | 0.00969 KA relative to UGCAUGU
B20 | 0.0137 KA relative to UGCAUGU
B21 | 0.000161 KA relative to UGCAUGU
B22 | 0.00252 KA relative to UGCAUGU
B23 | 0.0212 KA relative to UGCAUGU
B24 | 0.00738 KA relative to UGCAUGU
B25 | 0.0104 KA relative to UGCAUGU
B26 | 0.00787 KA relative to UGCAUGU
B27 | 0.00085 KA relative to UGCAUGU
B28 | 0.00919 KA relative to UGCAUGU
B29 | 0.00722 KA relative to UGCAUGU
B30 | 0.0144 KA relative to UGCAUGU
B31 | 0.0271 KA relative to UGCAUGU
